# The campaign covered roughly 350,000 compounds. About 260 (0.074%) were called active. Inconclusive means that the source gave no clear call. Such entries were picked first, then a sample of the others. Calls come from the whole dose curve; as a rule, active = well fitted inhibition curve with a large enough effect; inconclusive = small, poorly fitted or top-dose-only effect; inactive = no such curve, though single readings can be large or run the other way. Potencies beside an inconclusive call are fits to weak or partial responses and may not hold up.
# Target: Ferritin light chain (Equus caballus) (UniProt P02791)
# UniProt P02791, sequence (P02791 whole entry, looked up): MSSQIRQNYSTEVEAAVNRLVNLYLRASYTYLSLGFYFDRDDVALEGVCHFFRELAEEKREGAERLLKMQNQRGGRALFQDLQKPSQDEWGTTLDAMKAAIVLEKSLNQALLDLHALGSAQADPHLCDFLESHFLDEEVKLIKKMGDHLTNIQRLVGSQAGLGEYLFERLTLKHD
# Assay: qHTS Assay for Identification of Novel General Anesthetics; note: nearly all actives have a fitted effect of over 20% in size
# Details: apoferritin/1-aminoanthracene competitive binding, fluorescence; activity change, negative = displacement: at 77.5 µM (top of the series)
# Method in brief: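 Horse-spleen apoferritin (10 uM) was mixed with 50% saturated 1-aminoanthracene in PBS, exposed to compounds for 10 min at room temperature, and read for fluorescence (ex 380 nm, em 535 nm). Competitive displacement was fitted with a four-parameter Hill equation.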
# % is set by controls: 0 for no effect and ±100 for the full control effect; potency is the fitted concentration of half-maximal effect; tags give direction and shape of the fitted curve.
SMILES,Potency,"activity change, negative = displacement"
Cc1ccc(NC(=O)c2cc(N3C(=O)C=CC3=O)ccc2N2CCOCC2)cc1,"inconclusive: 25.1 µM [inhibitor, single point]",–
O=C(CCn1cccc1)Nc1nccs1,"inconclusive: 50.1 µM [inhibitor, single point]",–
COc1ccc(NC(=O)c2c(NCc3cccs3)sc3c2CCCC3)c(OC)c1,"inconclusive: 25.1 µM [inhibitor, single point]",–
O=C(NC1CCCCCC1)c1cccs1,"inconclusive: 39.8 µM [inhibitor, partial curve]",–
CCOc1ccc(CN2CCNC(=O)C2CC(=O)NCc2csc(C(C)C)n2)cc1 (stereo not given),"inconclusive: 35.5 µM [inhibitor, partial curve]",–
CC(=O)OC[C@@H]1O[C@@H](O/N=C2/C[C@@H](O)[C@@H](O)[C@@H]3[C@@H]4C(=O)N(c5cccc(Oc6ccccc6)c5)C(=O)[C@H]4CC[C@@H]23)[C@H](OC(C)=O)[C@H](OC(C)=O)[C@@H]1OC(C)=O,–,inactive: 6.45% [at 15.3 µM]
CS(=O)(=O)N1CCC(C(=O)Nc2cccc(F)c2)CC1,inactive,–
CCCCCC/C(C)=C1/SC(=S)NC1=O,"inconclusive: 31.6 µM [inhibitor, partial curve]",–
COc1ccc(-n2ncc(C(=O)Nc3ccc4c(c3)OCO4)c2C2CCN(C(=O)OC(C)(C)C)CC2)cc1,"inconclusive: 3.55 µM [inhibitor, full curve]",–
COc1ccc(Cn2cnc3c([N+](=O)[O-])c(C)c(C)cc32)cc1,"inconclusive: 44.7 µM [inhibitor, partial curve, poor fit]",–
O=C(CSC1CCCCC1)Nc1nccs1,"inconclusive: 8.91 µM [inhibitor, partial curve]",–
Cc1cnc(NC(=O)CCCc2nc3ccccc3s2)s1,inactive,–
CCOc1ccc(N(CC(=O)Nc2ccccc2OC)S(=O)(=O)c2ccccc2)cc1,inactive,–
CCc1cccc(NC(=O)C2CCCC2)c1,"inconclusive: 50.1 µM [inhibitor, single point]",–
COc1ccc(CNS(=O)(=O)c2ccc(S(=O)(=O)N3CCCCC3)cc2)cc1,"inconclusive: 39.8 µM [inhibitor, partial curve]",–
CCCCCCc1nnc(N)s1,"inconclusive: 14.1 µM [inhibitor, partial curve]",–
Cc1cc(C)c(N(C(=O)CN2C(=O)c3ccccc3S2(=O)=O)C(C(=O)NCC2CCCO2)c2ccc(F)cc2)c(C)c1 (stereo not given),"inconclusive: 25.1 µM [inhibitor, partial curve]",–
CN(C)CCCNC(=O)/C=C/c1ccc(OCc2c(F)cccc2Cl)cc1,"inconclusive: 15.8 µM [inhibitor, partial curve]",–
COC(C(=O)Nc1ccc(S(=O)(=O)N2CCCCC2)cc1)c1ccccc1 (stereo not given),"inconclusive: 35.5 µM [inhibitor, partial curve]",–
O=C(Nc1nc(-c2cccc(Br)c2)cs1)Oc1ccccc1,"inconclusive: 50.1 µM [inhibitor, single point]",–
O=C(CCC1N=C2c3ccccc3N=C(SCc3cccc(F)c3)N2C1=O)NCCc1ccccc1 (stereo not given),"inconclusive: 28.2 µM [inhibitor, partial curve]",–
O=C(CC1(O)C(=O)N(Cc2cccc3ccccc23)c2ccccc21)c1cccnc1 (stereo not given),"inconclusive: 17.8 µM [inhibitor, partial curve]",–

SMILES,Potency,"activity change, negative = displacement"
O=C(CCCc1ccccc1)Nc1ccccc1[N+](=O)[O-],"inconclusive: 50.1 µM [inhibitor, single point]",–
CCCN1C(=O)/C(=C/c2ccc3c(c2)OCO3)NC1=S,"inconclusive: 17.8 µM [inhibitor, partial curve]",–
CC(C)=CCc1c2c(c(O)c3c(=O)c(O)c(-c4ccccc4)oc13)C=CC(C)(C)O2,"inconclusive: 25.1 µM [inhibitor, partial curve]",–
Cc1ccc(CNc2ncnc3c2c(-c2ccccc2)cn3-c2ccccc2)cc1,inactive,–
CCCCN1C(=O)CC(Sc2ccccc2C(=O)O)C1=O (stereo not given),"inconclusive: 39.8 µM [inhibitor, partial curve]",–
Cc1ccc(-c2ccc(=O)n(CC(=O)NCCC(C)C)n2)cc1,"inconclusive: 11.2 µM [inhibitor, partial curve]",–
CCOCCCN(C(=O)c1snc(C(N)=O)c1N)C(C(=O)NCCC(C)C)c1ccc(Cl)cc1 (stereo not given),"inconclusive: 14.1 µM [inhibitor, partial curve]",–
S=c1[nH]nc(-c2cc(-c3ccco3)[nH]n2)n1-c1ccccc1Cl,inactive,–
Cc1ccc(Cn2nnc(C(=O)Nc3cccc(C)c3C)c2N)cc1,"inconclusive: 12.6 µM [inhibitor, partial curve, poor fit]",–
O=C(COC(=O)CCN1C(=O)/C(=C\C=C\c2ccccc2)SC1=S)Nc1cc(F)ccc1F,"inconclusive: 28.2 µM [inhibitor, partial curve]",–
COC(=O)C1=C(C)N(Cc2ccccc2)C(=NCCc2c[nH]c3ccccc23)N[C@H]1c1cccc(C(F)(F)F)c1,"inconclusive: 12.6 µM [inhibitor, partial curve]",–
O=C(Nc1ccccc1)C1(c2ccccc2)CC1(Cl)Cl (stereo not given),"inconclusive: 35.5 µM [inhibitor, single point]",–
C=CCn1c(-c2csc3ccccc23)n[nH]c1=S,"inconclusive: 31.6 µM [inhibitor, partial curve, poor fit]",–
CC(OC(=O)CN1C(=O)C2C3C=CC(C4CC34)C2C1=O)C(=O)c1ccccc1 (stereo not given),"inconclusive: 44.7 µM [inhibitor, partial curve]",–
CCNC(=O)/C(C#N)=C/c1c(N(Cc2ccccc2)Cc2ccccc2)nc2ccccn2c1=O,inactive,–
Nc1ccc(C23CC4CC(CC(C4)C2)C3)cc1,active: 8.91 µM,–
COc1ccc(C(C(=O)NC2CCCCC2)N(Cc2cccs2)C(=O)Cc2c[nH]c3ccccc23)cc1OC (stereo not given),inactive,–
CCC(C)(C)n1nnnc1C(c1cc2ccc(OC)cc2[nH]c1=O)N1CCN(C2CCCCC2)CC1 (stereo not given),"inconclusive: 10 µM [inhibitor, partial curve]",–
CCOc1ccc(CC2c3cc(OCC)c(OCC)cc3CCN2C(=O)c2cc(OC)c(OC)c(OC)c2)cc1OCC (stereo not given),"inconclusive: 6.31 µM [inhibitor, full curve, poor fit]",–
CC(CCc1ccccc1)NS(=O)(=O)c1ccccc1 (stereo not given),"inconclusive: 22.4 µM [inhibitor, partial curve]",–
COc1ccc2oc(=O)c(C(=O)Nc3cccc(C(=O)O)c3)cc2c1,inactive,–
COc1cccc(CNC(=O)C2CCN(Cc3cc4ccccc4n3Cc3ccc(C)cc3)CC2)c1,inactive,–

SMILES,Potency,"activity change, negative = displacement"
CC(C)c1nc2oc3c(NCC4CCCO4)ncnc3c2c2c1CCC2 (stereo not given),"inconclusive: 39.8 µM [inhibitor, single point]",–
CN1C[C@@H]2C(c3ccc(C(F)(F)F)cc3)C3(c4ccc(C#N)cc4)CC2(C3)[C@H]1c1ccccc1 (stereo not given in full),inactive,–
COc1ccc(CN=C2Nc3ccccc3CS2)cc1,"inconclusive: 35.5 µM [inhibitor, partial curve]",–
COc1cc(-c2cc3n(C)c(C)c(CCC(=O)NCc4ccccc4)c(=O)n3n2)cc(OC)c1OC,inactive,–
COc1cnc(SCc2ccc(Cl)c(Cl)c2)nc1Cl,"inconclusive: 10 µM [inhibitor, partial curve]",–
O=C(OCn1ncc(Cl)c(Cl)c1=O)c1ccc(C(F)(F)F)cc1,inactive,–
CCN(CC)S(=O)(=O)c1cc(C(=O)OCC(=O)c2ccc3c(c2)NC(=O)CO3)ccc1F,"inconclusive: 20 µM [inhibitor, partial curve]",–
COc1cccc(-c2cc(C(=O)N3CCN(Cc4ccc5c(c4)OCO5)CC3)on2)c1,"inconclusive: 15.8 µM [inhibitor, partial curve]",–
CCOC(=O)c1ccc(-c2nnc(-c3ccc(Cl)cc3Cl)o2)cc1,inactive,–
O=C(COc1ccc2ccccc2c1)N1CCN(C(=O)c2ccco2)CC1,inactive,–
CC(=O)c1c(C)[nH]c(C(=O)CSc2nnc(-c3ccc(Cl)cc3)n2CC2CCCO2)c1C (stereo not given),"inconclusive: 35.5 µM [inhibitor, partial curve]",–
COc1ccc(C(=O)Nc2ccc(C(=O)NCCc3ccccc3)cc2)cc1,"inconclusive: 0.316 µM [inhibitor, full curve, poor fit]",–
CCN(CC)CCC(c1ccc(N(C)C)cc1)c1c(OC)cc(OC)c2c(-c3ccccc3)cc(=O)oc12 (stereo not given),"inconclusive: 14.1 µM [inhibitor, partial curve]",–
S=c1[nH]nc(-c2cc(-c3ccccc3)n[nH]2)n1/N=C/c1ccc(Cl)cc1,"inconclusive: 22.4 µM [inhibitor, partial curve]",–
COc1ccccc1C1=NC(c2ccc(F)cc2)N=C1C (stereo not given),inactive,–
Cc1cc(=O)[nH]c(SCC(=O)NCCC2=CCCCC2)n1,inactive,–
CC(C)c1ccc(C2C3CSCC=C3C(C#N)=C(N)C2(C#N)C#N)cc1 (stereo not given),"inconclusive: 17.8 µM [inhibitor, partial curve]",–
CC1C=Cc2ccccc2N1C(=O)c1ccccc1 (stereo not given),"inconclusive: 22.4 µM [inhibitor, partial curve]",–
Clc1ccc(CONc2ncnc3nonc23)c(Cl)c1,"inconclusive: 25.1 µM [inhibitor, partial curve]",–
C/C(=N/NC(=O)CCCOc1ccc(Cl)cc1Cl)c1ccc(C)o1,"inconclusive: 25.1 µM [inhibitor, single point]",–
COCc1ccc(C(=O)N(C)CC2CCCN(CCc3ccc(Cl)cc3)C2)o1 (stereo not given),inactive,–

# Reference: PubChem BioAssay AID485281 (National Center for Advancing Translational Sciences (NCATS), 2010)
